The list shows a part of the results.
Assays:
HSkMC = human skeletal muscle cells; assay: cytotoxicity call (relative viability < 0.9); conditions: 10 µM
HepG2 = assay: cytotoxicity call (relative viability < 0.9); conditions: 10 µM
S. aureus RN4220 = assay: growth inhibition call (relative growth <= 0.2); conditions: 50 µM

Row | SMILES | cytotoxicity call (HSkMC) | cytotoxicity call (HepG2) | growth inhibition call (S. aureus RN4220)
1 | C[C@@H]1CN([C@@H](C)CO)C(=O)c2cc(NC(=O)Nc3cccc4ccccc34)ccc2O[C@@H](C)CCCCO[C@H]1CN(C)Cc1ccc2c(c1)OCO2 | active | active | inactive
2 | CCNC(=O)C[C@H]1CC[C@H](NC(=O)C2CCOCC2)[C@@H](CO)O1 | inactive | inactive | inactive
3 | Cc1noc(C)c1S(=O)(=O)Nc1ccc2c(c1)C(=O)N([C@@H](C)CO)C[C@H](C)[C@H](CN(C)Cc1ccc(C(F)(F)F)cc1)OCCCC[C@@H](C)O2 | inactive | active | inactive
4 | Cc1cccnc1[C@@H](NC(=O)C1CCN(CCOc2ccc(Cl)cc2Cl)CC1)c1ccc(Cl)cc1 | inactive | inactive | active
5 | Nc1ncn([C@@H]2C[C@H](O)[C@@H](CO)O2)c(=O)n1 | inactive | inactive | inactive
6 | C[C@H](CO)N1C[C@H](C)[C@@H](CN(C)S(=O)(=O)c2ccccc2)Oc2c(NS(=O)(=O)c3ccc(F)cc3)cccc2C1=O | inactive | inactive | inactive
7 | C=C1C[C@]23CC[C@@H]4[C@@](C)(CCC[C@@]4(C)C(=O)O)[C@H]2CC[C@H]1C3 | inactive | active | active
8 | Cc1ccc(S[C@]2(C(=O)NCC(C)C)CC(=O)N(Cc3ccccc3Cl)[C@@H]2c2ccc(CO)cc2I)cc1 | inactive | inactive | inactive
9 | C[C@H](CO)N1C[C@H](C)[C@@H](CN(C)S(=O)(=O)c2ccc(Cl)cc2)OCCCC[C@H](C)Oc2ccc(NS(=O)(=O)c3cccs3)cc2C1=O | inactive | inactive | inactive
10 | C[C@H](CO)N1C[C@H](C)[C@H](CN(C)S(C)(=O)=O)Oc2ccc(NS(=O)(=O)c3ccc(F)cc3)cc2C1=O | inactive | inactive | inactive

— the antibiotic and cytotoxicity screens of Wong et al. (2023)
